A collection of fitness landscapes (doi:10.1126/science.1257360)
The other results are listed elsewhere or left out.

B1: PhoQ; a variant is named by its letters at X, in order, P23837 (parent)
chain: MKKLLRLFFPLSLRVRFLLATAAVVLVLSLAYGMVALIGYSVSFDKTTFRLLRGESNLFYTLAKWENNKLHVELPENIDKQSPTMTLIYDENGQLLWAQRDVPWLMKMIQPDWLKSNGFHEIEADVNDTSLLLSGDHSIQQQLQEVREDDDDAEMTHSVAVNVYPATSRMPKLTIVVVDTIPVELKSSYMVWSWFIYVLSANLLLVIPLLWVAAWWSLRPIEALAKEVRELEEHNRELLNPATTRELTSLVRNLNRLLKSERERYDKYRTTLTDLTHSLKTPLXXLQXXLRSLRSEKMSVSDAEPVMLEQISRISQQIGYYLHRASMRGGTLLSRELHPVAPLLDNLTSALNKVYQRKGVNISLDISPEISFVGEQNDFVEVMGNVLDNACKYCLEFVEISARQTDEHLYIVVEDDGPGIPLSKREVIFDRGQRVDTLRPGQGVGLAVAREITEQYEGKIVAGESMLGGARMEVIFGRQHSAPKDE

Variants of: B1
Assay: enrichment ratio after two sorts for PhoP signalling (ratio (wild type AVST 3.29)); higher = more functional
Details: with PhoP (E. coli)

Variant	enrichment ratio
ERTT	≤ 0.25
IRCN	≤ 0.25
YRCK	≤ 0.25
TISE	24.4
NRLK	≤ 0.25
VSAH	≤ 0.25
LGMG	≤ 0.25
RAGM	≤ 0.25
YRYR	≤ 0.25
LQGI	≤ 0.25
TCIF	≤ 0.25
AYWE	≤ 0.25
IDWD	≤ 0.25
YVFV	≤ 0.25
NKEE	≤ 0.25
QRST	≤ 0.25
TATQ	5.5
VQDK	≤ 0.25
WCFS	≤ 0.25
KPLH	≤ 0.25
HHCN	≤ 0.25
RHYG	≤ 0.25
EIKH	≤ 0.25
FCAG	≤ 0.25
AHRP	≤ 0.25
MNIV	≤ 0.25

Variant	enrichment ratio
HSCN	≤ 0.25
HDMT	≤ 0.25
YSDG	≤ 0.25
SAQH	≤ 0.25
MKDS	≤ 0.25
VWWG	≤ 0.25
KRNC	≤ 0.25
ALKK	≤ 0.25
FCHF	≤ 0.25
MMTE	≤ 0.25
VNHH	≤ 0.25
VTVY	≤ 0.25
ELAY	≤ 0.25
MRWI	≤ 0.25
NVDI	≤ 0.25
LPKP	≤ 0.25
ILEL	≤ 0.25
ARLS	≤ 0.25
WREL	≤ 0.25
PDSM	≤ 0.25
NFDQ	≤ 0.25
LVIG	≤ 0.25
QCRG	≤ 0.25
HWWQ	≤ 0.25
GFRG	≤ 0.25
QASK	≤ 0.25

Variant	enrichment ratio
PYNS	≤ 0.25
HAFG	≤ 0.25
MHRF	≤ 0.25
ELFY	≤ 0.25
WIIV	≤ 0.25
HDII	≤ 0.25
SGMK	0.508
MNHK	≤ 0.25
ETKY	≤ 0.25
IPCH	≤ 0.25
DTKN	≤ 0.25
NLHN	≤ 0.25
YRTA	≤ 0.25
YWWE	≤ 0.25
KPWD	≤ 0.25
LTWQ	≤ 0.25
RGRD	≤ 0.25
THQT	≤ 0.25
PCGT	≤ 0.25
NSTY	≤ 0.25
ITVK	≤ 0.25
QCIG	≤ 0.25
PQSH	≤ 0.25
KYCG	≤ 0.25
VLDK	≤ 0.25
FNKA	≤ 0.25

Variant	enrichment ratio
YRKK	≤ 0.25
AIQH	≤ 0.25
PNWA	≤ 0.25
LERK	≤ 0.25
QTIN	≤ 0.25
GIRI	≤ 0.25
QMYL	9.47
TAWY	6.15
QHLS	≤ 0.25
ICHV	≤ 0.25
IGTR	≤ 0.25
STYF	≤ 0.25
FFMT	≤ 0.25
SGFK	≤ 0.25
HTAD	≤ 0.25
RVGW	≤ 0.25
PRRS	≤ 0.25
QDSK	≤ 0.25
VYCV	≤ 0.25
QCTQ	≤ 0.25
VSKD	≤ 0.25
NKPH	≤ 0.25
NERW	≤ 0.25
KHRN	≤ 0.25
AQSG	7.86
NKGK	≤ 0.25

Variant	enrichment ratio
KATC	≤ 0.25
YAWG	≤ 0.25
YMNK	≤ 0.25
MAWS	≤ 0.25
DNIG	≤ 0.25
IQPP	≤ 0.25
LQIM	≤ 0.25
PNSC	≤ 0.25
QHEF	≤ 0.25
VQQD	≤ 0.25
AEEP	≤ 0.25
VFYS	≤ 0.25
LHNW	≤ 0.25
LRIC	≤ 0.25
DNKD	≤ 0.25
ALMA	≤ 0.25
DNKP	≤ 0.25
TECD	≤ 0.25
SDLI	9.48
LPNP	≤ 0.25
FHYF	≤ 0.25
SSFS	≤ 0.25
TPIR	≤ 0.25
GPTK	≤ 0.25
YHQN	≤ 0.25
HWEC	≤ 0.25

Variant	enrichment ratio
NSVN	≤ 0.25
EHLN	≤ 0.25
MEMW	≤ 0.25
LIHD	≤ 0.25
FKCM	≤ 0.25
GQRF	≤ 0.25
YGWL	≤ 0.25
TGIR	≤ 0.25
ADVE	≤ 0.25
ADAE	≤ 0.25
LHWS	≤ 0.25
NTQR	≤ 0.25
FFFP	≤ 0.25
YAYQ	≤ 0.25
SCAP	≤ 0.25
EVEQ	≤ 0.25
EFME	≤ 0.25
HQHR	≤ 0.25
LMFS	0.321
AGAP	≤ 0.25
QPEC	≤ 0.25
TAKH	≤ 0.25
QRKN	≤ 0.25
